Data taken from article PMC8768627.
These are yes or no findings as the source states them, for the method shown. Binding seen in cells or lysates may run through a third protein. Some binding calls cover weakened binding; strength is not graded here.

Protein sequences, listed by entry. Tags and fused reporters are not part of them. Lines headed by an entry give the natural chain unless they say otherwise; changes in a name come on top. Chains listed by the source or under a name are the forms on record and can include a tag or linker.
UniProt P39687: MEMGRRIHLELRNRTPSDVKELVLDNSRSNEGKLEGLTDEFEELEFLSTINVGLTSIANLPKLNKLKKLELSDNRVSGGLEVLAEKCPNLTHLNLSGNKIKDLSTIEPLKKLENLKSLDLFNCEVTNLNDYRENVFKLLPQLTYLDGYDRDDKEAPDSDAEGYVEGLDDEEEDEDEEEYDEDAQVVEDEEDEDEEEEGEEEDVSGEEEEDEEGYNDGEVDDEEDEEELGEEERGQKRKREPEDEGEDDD
ANP32A-NLSm-Flag (nuclear localization signal KRKR mutated to AAAA) (P39687, form named): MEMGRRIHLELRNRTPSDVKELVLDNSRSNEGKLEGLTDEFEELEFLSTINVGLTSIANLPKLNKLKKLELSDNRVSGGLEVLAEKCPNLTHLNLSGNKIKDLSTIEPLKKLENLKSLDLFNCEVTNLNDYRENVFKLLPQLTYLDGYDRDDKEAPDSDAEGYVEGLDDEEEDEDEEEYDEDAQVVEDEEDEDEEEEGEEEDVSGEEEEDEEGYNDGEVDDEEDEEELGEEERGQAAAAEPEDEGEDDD
UniProt Q92688: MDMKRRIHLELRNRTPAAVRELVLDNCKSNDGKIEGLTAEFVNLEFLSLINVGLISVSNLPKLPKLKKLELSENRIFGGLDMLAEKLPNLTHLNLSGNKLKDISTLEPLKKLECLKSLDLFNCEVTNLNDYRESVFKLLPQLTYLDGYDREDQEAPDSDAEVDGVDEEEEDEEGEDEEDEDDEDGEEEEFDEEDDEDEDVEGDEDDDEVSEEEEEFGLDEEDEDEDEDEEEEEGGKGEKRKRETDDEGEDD
ANP32B-NLSm-Flag (nuclear localization signal KRKR mutated to AAAA) (Q92688, form named): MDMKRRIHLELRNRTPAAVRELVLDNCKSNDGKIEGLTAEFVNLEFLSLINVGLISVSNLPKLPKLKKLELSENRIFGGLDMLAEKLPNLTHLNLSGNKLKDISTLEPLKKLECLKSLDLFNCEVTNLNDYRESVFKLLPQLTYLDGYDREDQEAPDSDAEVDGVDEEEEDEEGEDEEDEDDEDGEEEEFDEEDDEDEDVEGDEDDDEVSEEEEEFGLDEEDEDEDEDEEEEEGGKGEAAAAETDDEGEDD

Experiments:
Experiment in all cases: co-IP
[1] = target: Flag-tagged human ANP32A (human) (UniProt P39687)
[2] = target: ANP32A-NLSm-Flag (nuclear localization signal KRKR mutated to AAAA) (human) (UniProt P39687)
[3] = target: Flag-tagged human ANP32B (human) (UniProt Q92688)
[4] = target: ANP32B-NLSm-Flag (nuclear localization signal KRKR mutated to AAAA) (human) (UniProt Q92688)
[5] = target: HA-tagged KPNA6 (human (by the printed RefSeq entry NP_036448.1)) (UniProt O60684)

| Substance | binding [1] | binding [2] | binding [3] | binding [4] | binding [5] |
| --- | --- | --- | --- | --- | --- |
| HA-tagged KPNA6 (from UniProt O60684 1-536) | binds | no binding | binds | no binding | – |
| Flag-tagged human ANP32B (from UniProt Q92688 1-251) | – | – | – | – | binds |
| Flag-tagged human ANP32A (from UniProt P39687 1-249) | – | – | – | – | binds |
